The values that follow come from the supplement of paper PMC11417369.

± gives the standard deviation of the averaged measurements. The list shows a part of the results.

The test system of the assay is PfAP2-EXP AP2 domain (GST-tagged). Briefly: gcPBM binding intensity (ln(normalized median fluorescence intensity)); higher = stronger DNA binding. In a few lines:
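Binding intensity is the highest Masliner-normalised natural-log median intensity over replicate spots in either probe orientation. To obtain it, GST-tagged P. falciparum DNA-binding domains made in E. coli were incubated for 1 h on an Agilent 4 × 180k array of primer-extended double-stranded 36-bp intergenic genomic probes plus negative controls. Detection used Alexa488 anti-GST antibody with scanning at 488 nm.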
With “CCTTTCTATTGAAAATGTACATATATATTATTATAT [XGTACX_site5527]”, the “gcPBM binding intensity (ln)” value was 8.46 ± 0.33.
Next, “TGTATATATAAAAATATACACACTGTATTATTGTAA [CACACA_site3757]”: 8.1 ± 0.36.
With “AATATATATACTTTTTTTTTTTTTTTTTTTTTTTTT [CACACA_negctrl_site520]”, the “gcPBM binding intensity (ln)” value stood at 9.165 ± 0.049.
Consider “TTTAGCACAAACAAAAAAAAAATAGAAAAAAATATA [CACACA_negctrl_site1772]”, for which the “gcPBM binding intensity (ln)” value turned out to be 8.49 ± 0.49.
Regarding “ACAAATTGTTAAAGGTGTACAATACATATATAAGAA [XGTACX_site4906]”, the “gcPBM binding intensity (ln)” value came out at 9.09 ± 0.37.
Next, “TATGTTTACATATACGTGCACATGAATGTATACATT [GTGCAC_site9894]”: 8.785 ± 0.035.
For “AAAAAATAAATAAATAGTACTTTAAAAGAAAAAAAA [XGTACX_site5051]”, the “gcPBM binding intensity (ln)” value was 8.49 ± 0.47.
The value for “TATATACAGAATATATGTACATATTCATTTTATATT [XGTACX_site5139]” was 8.47 ± 0.23; that for “AAATAAAAAATGGAAATCTTAACAAGAATCATTAAC [CACACA_negctrl_site1626]” was 8.42 ± 0.37; that for “TTGTTTAACTTGTTAAATATAATGTATCTGTGGATA [GTGCAC_negctrl_site108]” was 8.12 ± 0.4.
Turning to “CAATGTTACTATAATACACACAATATGTATTTGTCT [CACACA_site6668]”, the “gcPBM binding intensity (ln)” value amounted to 8.5 ± 0.34.
Next, AAAGAAAACCAAGTGGTGCATTTTCGTTACTTCATC: 8.63 ± 0.099.
Next, “AATTATTTACCCTATACACACAAAACAGACTAAAAA [CACACA_site6688]”: 8.77 ± 0.4; “ATATTAATTCGTTTTGTACACACATAATGAATAATT [CACACA_site8701]”: 8.43 ± 0.24.
Turning to “ATAAAAATCATGTTGGTGCGAAATTTTATTATCAGA [GTGCAC_site9735]”, the “gcPBM binding intensity (ln)” value came out at 8.65 ± 0.24.
In the case of “AAGGTATGATTAATCACACACATAAATATATATACA [CACACA_site2658]”, the “gcPBM binding intensity (ln)” value was found to be 8.71 ± 0.42.
The value for “TTATGTATAAACACACGTACACACACTAAGTATATC [XGTACX_site3254]” was 8.58 ± 0.38.
For “ACACATACACATTAGGTGCATATATTTCAATATTAC [GTGCAC_site9423]”, the “gcPBM binding intensity (ln)” value was determined as 8.605 ± 0.064.
The value for “TTTAAAAAGATATATACACACATATAAATAAATATA [CACACA_site6436]” was 8.43 ± 0.31.
The value for “ATTATATTTTTAAGTACACACATATATATATATATA [CACACA_site5925]” was 10.2 ± 0.3; that for “CCACGTATAATATGTACACACACATATATACAAAAA [CACACA_site8208]” was 8.66 ± 0.34.
The value for “AGCCTCGGGGTCATATATATATATATATATATATAT [CACACA_negctrl_site512]” was 10.2 ± 0.53.
For the sequence “TATTATTGCATATTTACACACGTACTAATTTAAACA [CACACA_site970]”, the “gcPBM binding intensity (ln)” value was 8.79 ± 0.29.
On to “ATAAAAGGAAGAAAATGTACATATAATTATATGCAT [XGTACX_site8421]”, for which the “gcPBM binding intensity (ln)” value was found to be 8.99 ± 0.29.
